Read counts are not given, so values of variants with three or more changes are uncertain.
B1: LINE1-mini (parent)
chain: GGCAGAGCUCAACACAGCGUGGCAAAGUGGCUGUGGCUAGACUGCC

Variants of: B1
Test: self-cleavage, relative activity (ratio to wild type); higher = more cleavage; in vitro, sequencing; the parent is a self-cleaving ribozyme

Variant	self-cleavage
GGCAGAGCUCACCACCGCGUGUCAAAGUGCGUGUGACUAGACUGCC [A12C A16C G22U G30C C31G G36A]	0.01
GGCAGAGCUCUACACAGCGUGGCAAAGUGGCUGAGUCUAGACUGCC [A11U U34A G36U]	0.02
GGCAGAGCUCACCACAACGUGGCCAAGUGGCUGUGGCUAGACUGGC [A12C G17A A24C C45G]	0.01
GGCAGAGCUCACCACAGGUUGGCAAAGUGGCUGUGGCCAAACUGCC [A12C C18G G19U U38C G40A]	0.02
GGCAGAGCUCUACACAGCGGGGCAAAGUGGCUUUGGCUAGUCUGCC [A11U U20G G33U A41U]	0.03
GGCAGAGCUCACCGCAGCGUGGCAAAGUGGCUUUGCCUAGACUGCC [A12C A14G G33U G36C]	0
GGCAGAGCUCACCAUAGCGUCGCAAAGUGGCUGUGGCUAGACUGCC [A12C C15U G21C]	0.02
GGCAGAGCUCACCACUGCGUGGCAAAGUGGAUGUGGCUAGGCUGCC [A12C A16U C31A A41G]	0.01
GGCAGAGCUCUACACAGCGGGGCAAAGUGUCGGUGGCUAGACUGCC [A11U U20G G30U U32G]	0.32
GGCAGAGCUCACCACAGCGUGGCAACGUGGAUGUGGCUAGACUGCC [A12C A26C C31A]	0.01
GGCAGAGCUCUACACAGCGGGGCAAAGUGGCUCUGGCUAAACUGCC [A11U U20G G33C G40A]	0
GGCAGAGCUCUACACAGCGUGGCAAAGUGGCUGUGGCAAGAUUGGC [A11U U38A C42U C45G]	0.01
GGCAGAGCUCACUACAGCGUAUCAAAGUGGCUAUGGCUAGUAUGCC [A12C C13U G21A G22U G33A A41U C42A]	0.02
GGCAGAGCUCACCACAGCGUGGCAAAGUGGCUGUGGAUAGUCUGCC [A12C C37A A41U]	0.56
GGCAGAGCUCUACACAGCGUGGCAAAGUGGCGGUGGCUAAACUGCC [A11U U32G G40A]	0
GGCAGAGCUCACCCCAGCGUGGCAAAGUGACUGUGGCUAGACUGCC [A12C A14C G30A]	0.04
GGCAGAGCUCACAACAGCGUGGCAAAGUUGCUGUGGCUAGACUGCC [A12C C13A G29U]	0.02
GGCAGAGCUCACCACAGCGUGGCAAUGUGGCAGUGGCUAGACUGCC [A12C A26U U32A]	0.02
GGCAGAGCUCACCACAGCGUGGCAAAGUGGCUGUGGUUGGUCUGCC [A12C C37U A39G A41U]	0.01

Variant	self-cleavage
GGCAGAGCUCACCACAGAGUGGCAAAGUGUCUGUGCCUAGACUGCC [A12C C18A G30U G36C]	0
GGCAGAGCUCACCACAGAGUGACAAAGUGGCUGUGGCUAGAAUCCC [A12C C18A G22A C42A G44C]	0
GGCAGAGCUCACCCCAGCGCGGCAAAGUGGCUGUGGCUAGACUGCC [A12C A14C U20C]	0.01
GGCAGAGCUCACCAUAGCGUGGCAAAGUGGCUGCGGCUAGACUGCC [A12C C15U U34C]	0.13
GGCAGAGCUCACCAUAGCGUGGCAAAGUGGCUGGGGCUAGACUGCC [A12C C15U U34G]	0.12
GGCAGAGCUCACCAAAGCGUGGCAAAUUGGCUGUCGCUAGACUGCC [A12C C15A G27U G35C]	0
GGCAGAGCUCUACACAGCGUGGCAAAGUGGCUGUGGCGAGGCUGCC [A11U U38G A41G]	0
GGCAGAGCUCACAACAGCGUGGCAAAGUGGCUGUGGCCAGAAUGCC [A12C C13A U38C C42A]	0.03
GGCAGAGCUCACCACAGGGUGGCAAAGUGGCUGUGGCUAGACUAUA [A12C C18G G44A C45U C46A]	0.02
GGCAGAGCUCACCACAGGGUGGCAAAGUGGCAGUGGCUAGUGUGCC [A12C C18G U32A A41U C42G]	0.01
GGCAGAGCUCACCUCAGCGUGGCAAAGUGGCUGUGGCUAGACGGCC [A12C A14U U43G]	0.01
GGCAGAGCUCACCACAGCGUGGCAUAGUGUCUGUGGCUAGACUGCC [A12C A25U G30U]	0
GGCAGAGCUCACCUGAGCGUGGCAAAGUGGAUGUAGCUAGACUGCC [A12C A14U C15G C31A G35A]	0.03
GGCAGAGCUCACCAAAGCGUGGCAAAGUUGCUGUGGCUAGACUGCC [A12C C15A G29U]	0.05
GGCAGAGCUCACCUCAGCGUGGCAAAGUGGCUGUGGCUAGACUGCG [A12C A14U C46G]	0.02
GGCAGAGCUCUACACAGCGUGGCAAAGCCGCUGUGGCUAGACUGCC [A11U U28C G29C]	0.03
GGCAGAGCUCACCAUAGCGUGGAAAAGUGGCUGUGGCUAGACUGCC [A12C C15U C23A]	0.02
GGCAGAGCUCACCACAGCGUGGGAAAUUGGCUGUGGCUAGACUGCC [A12C C23G G27U]	0.02
GGCAGAGCUCACUACAGCGUGGCAAUGUGGCUGUGGCUAGACUGCC [A12C C13U A26U]	0

Variant	self-cleavage
GGCAGAGCUCACCUUAGCGUAGCAAAGUGGCUGUGGCUAGACACCC [A12C A14U C15U G21A U43A G44C]	0.01
GGCAGAGCUCACCAGAGCGGGGCAAAGUGGCUGCGGCUAGACUGCC [A12C C15G U20G U34C]	0.01
GGCAGAGCUCACCACAGAGUGGCUAAGUGGCUGUGGCUAGAAUGCC [A12C C18A A24U C42A]	0.01
GGCAGAGCUCACAACAGCGUGGCAAAGUGGCUGUGGCGAGACUGCC [A12C C13A U38G]	0
GGCAGAGCUCUACACAGCGUGGCAAAGUGGCUGUGGCGAGACUGCG [A11U U38G C46G]	0.02
GGCAGAGCUCACCACAGCGUGGCACAGUGGCUGUGGCUAGAGUGCC [A12C A25C C42G]	0.01
GGCAGAGCUCACCACAGGGUGGUAAAGUGGCUGUGGCUAGACUGCC [A12C C18G C23U]	0.01
GGCAGAGCUCACCGCAGCGUGGCAAAGCGGCUGUGGCUAGACUACC [A12C A14G U28C G44A]	0.03
GGCAGAGCUCACCACAGCGUGGCAAAGUGGAUGUUGCUAGACUGCC [A12C C31A G35U]	0.02
GGCAGAGCUCACCAGAGCGUGGCAAUGUGGCUCUGGCUAGACUGCC [A12C C15G A26U G33C]	0.04
GGCAGAGCUCACCACAGCGUGGCGAAGUGGCAGUGGCUCGACUGCC [A12C A24G U32A A39C]	0
GGCAGAGCUCACGACAGCGUGGCAAAGUGGGUGUGGCUAGACUGCA [A12C C13G C31G C46A]	0
GGCAGAGCUCACCACAGGGUGGGAAAGUGUCUGUGGCUAGACUGCC [A12C C18G C23G G30U]	0
GGCAGAGCUCUACACAGCGUGGCAAAGUGGCCGUCGCUAGAGUGCC [A11U U32C G35C C42G]	0.01
GGCAGAGCUCACCCCACCGUGGAAAAGUGGCUGUGGCGACACUGCC [A12C A14C G17C C23A U38G G40C]	0.01
GGCAGAGCUCACAACAGAGUGGCAAAGUGGCGGUGGCUAGACUGCC [A12C C13A C18A U32G]	0.02
GGCAGAGCUCACCACAGCGUGGAAAAGUGUCAGUGGCGAGACCGCC [A12C C23A G30U U32A U38G U43C]	0
GGCAGAGCUCACCACAGCGUGGAAAAGUGGCUGUGGAUAGACUGCC [A12C C23A C37A]	0.05
